# Source: the supplement of paper PMC8728848
# The list shows a part of the results.
# B1: ACA (Amaranthus caudatus) (protein)
# chain: MAGLPVIMCLKSNNNQKYLRYQSDNIQQYGLLQFSADKILDPLAQFEVEPSKTYDGLVHIKSRYTNKYLVRWSPNHYWITASANEPDENKSNWACTLFKPLYVEEGNMKKVRLLHVQLGHYTQNYTVGGSFVSYLFAESSQIDTGSKDVFHVIDWKSIFQFPKRYVTFKGNNGKYLGVITINQLPCLQFGYDNLNDPKVAHEMFVTSNGTICIKSTYMNKFWRLSTDDWILVDGNDPRETNEAAALFRSDVHDFNVISLLNMQKTWFIKRFTSGKPGFINCMNAATQNVDETAILEIIELGSNN
# Key:
# Test in all cases: glycan array binding signal (z-score within array); higher = stronger binding
# Conditions in all cases: glycan notation: IUPAC condensed, linker removed
# Gal(b1-3)GlcNAc6S = biological target: Gal(b1-3)GlcNAc6S
# In short: (§1)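 Glycan array data came from 3228 arrays in the Consortium for Functional Glycomics database, and only arrays with an available protein sequence were kept. Glycan names were put into IUPAC-condensed notation, and columns mapping to the same glycan were averaged. The binding signal is a within-array Z-score, averaged across arrays of one protein sequence run at different concentrations or buffers and across linkers. A negative Z-score can be read as non-binding.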
# [1] = biological target: Gal(b1-3)[Fuc(a1-4)]GlcNAc
# In short: as §1
# [2] = biological target: Gal(b1-3)[Fuc(a1-4)]GlcNAc(b1-2)Man
# In short: as §1
# [3] = biological target: Gal(b1-3)[Fuc(a1-4)]GlcNAc(b1-2)Man(a1-3)[Gal(b1-3)[Fuc(a1-4)]GlcNAc(b1-2)Man(a1-6)]Man(b1-4)GlcNAc(b1-4)[Fuc(a1-6)]GlcNAc
# In short: as §1
# [4] = biological target: Gal(b1-3)[Fuc(a1-4)]GlcNAc(b1-3)Gal(b1-3)[Fuc(a1-4)]GlcNAc
# In short: as §1
# [5] = biological target: Gal(b1-3)[Fuc(a1-4)]GlcNAc(b1-3)Gal(b1-4)[Fuc(a1-3)]GlcNAc
# In short: as §1
# [6] = biological target: Gal(b1-3)[Fuc(a1-4)]GlcNAc(b1-6)GalNAc
# In short: as §1
# [7] = biological target: Gal(b1-3)[GlcNAc(b1-6)]GalNAc
# In short: as §1
# [8] = biological target: Gal(b1-3)[Neu5Ac(a2-6)]GalNAc
# In short: as §1
# [9] = biological target: Gal(b1-3)[Neu5Ac(a2-6)]GlcNAc(b1-4)Gal(b1-4)Glc
# In short: as §1
# [10] = biological target: Gal(b1-3)[Neu5Ac(b2-6)]GalNAc
# In short: as §1
# Gal(b1-4)Gal = biological target: Gal(b1-4)Gal
# In short: as §1
# [11] = biological target: Gal(b1-4)GalNAc(a1-3)[Fuc(a1-2)]Gal(b1-4)GlcNAc
# In short: as §1
# [12] = biological target: Gal(b1-4)GalNAc(b1-3)[Fuc(a1-2)]Gal(b1-4)GlcNAc
# In short: as §1
# Gal(b1-4)Glc = biological target: Gal(b1-4)Glc
# In short: as §1
# Gal(b1-4)Glc6S = biological target: Gal(b1-4)Glc6S
# In short: as §1
# Gal(b1-4)GlcNAc = biological target: Gal(b1-4)GlcNAc
# In short: as §1
# [13] = biological target: Gal(b1-4)GlcNAc(a1-6)Gal(b1-4)GlcNAc
# In short: as §1
# Gal(b1-4)GlcNAc(b1-2)Man = biological target: Gal(b1-4)GlcNAc(b1-2)Man
# In short: as §1
# [14] = biological target: Gal(b1-4)GlcNAc(b1-2)Man(a1-3)Man(b1-4)GlcNAc(b1-4)GlcNAc
# In short: as §1
# [15] = biological target: Gal(b1-4)GlcNAc(b1-2)Man(a1-3)[Gal(b1-4)GlcNAc(b1-2)Man(a1-6)]Man(b1-4)GlcNAc(b1-4)GlcNAc
# In short: as §1
# [16] = biological target: Gal(b1-4)GlcNAc(b1-2)Man(a1-3)[Gal(b1-4)GlcNAc(b1-2)Man(a1-6)]Man(b1-4)GlcNAc(b1-4)[Fuc(a1-6)]GlcNAc
# In short: as §1
# [17] = biological target: Gal(b1-4)GlcNAc(b1-2)Man(a1-3)[Gal(b1-4)GlcNAc(b1-2)Man(a1-6)][Gal(b1-4)GlcNAc(b1-4)]Man(b1-4)GlcNAc(b1-4)[Fuc(a1-6)]GlcNAc
# In short: as §1
# [18] = biological target: Gal(b1-4)GlcNAc(b1-2)Man(a1-3)[Gal(b1-4)GlcNAc(b1-2)Man(a1-6)][GlcNAc(b1-4)]Man(b1-4)GlcNAc(b1-4)[Fuc(a1-6)]GlcNAc
# In short: as §1
# [19] = biological target: Gal(b1-4)GlcNAc(b1-2)Man(a1-3)[GlcNAc(b1-2)Man(a1-6)]Man(b1-4)GlcNAc(b1-4)GlcNAc
# In short: as §1
# [20] = biological target: Gal(b1-4)GlcNAc(b1-2)Man(a1-3)[GlcNAc(b1-4)][Gal(b1-4)GlcNAc(b1-2)Man(a1-6)]Man(b1-4)GlcNAc(b1-4)GlcNAc
# In short: as §1
# [21] = biological target: Gal(b1-4)GlcNAc(b1-2)Man(a1-3)[Man(a1-6)]Man(b1-4)GlcNAc(b1-4)GlcNAc
# In short: as §1
# [22] = biological target: Gal(b1-4)GlcNAc(b1-2)Man(a1-6)Man(b1-4)GlcNAc(b1-4)GlcNAc
# In short: as §1
# [23] = biological target: Gal(b1-4)GlcNAc(b1-2)Man(a1-6)[GlcNAc(b1-2)Man(a1-3)]Man(b1-4)GlcNAc(b1-4)GlcNAc
# In short: as §1
# [24] = biological target: Gal(b1-4)GlcNAc(b1-2)Man(a1-6)[Man(a1-3)]Man(b1-4)GlcNAc(b1-4)GlcNAc
# In short: as §1
# [25] = biological target: Gal(b1-4)GlcNAc(b1-2)[Gal(b1-4)GlcNAc(b1-4)]Man(a1-3)[Gal(b1-4)GlcNAc(b1-2)Man(a1-6)]Man(b1-4)GlcNAc(b1-4)GlcNAc
# In short: as §1
# [26] = biological target: Gal(b1-4)GlcNAc(b1-2)[Gal(b1-4)GlcNAc(b1-4)]Man(a1-3)[Gal(b1-4)GlcNAc(b1-2)[Gal(b1-4)GlcNAc(b1-6)]Man(a1-6)]Man(b1-4)GlcNAc(b1-4)GlcNAc
# In short: as §1
# [27] = biological target: Gal(b1-4)GlcNAc(b1-2)[Gal(b1-4)GlcNAc(b1-4)]Man(a1-3)[GlcNAc(b1-4)][Gal(b1-4)GlcNAc(b1-2)Man(a1-6)]Man(b1-4)GlcNAc(b1-4)GlcNAc
# In short: as §1
# [28] = biological target: Gal(b1-4)GlcNAc(b1-2)[Gal(b1-4)GlcNAc(b1-4)]Man(a1-3)[GlcNAc(b1-4)][Gal(b1-4)GlcNAc(b1-2)[Gal(b1-4)GlcNAc(b1-6)]Man(a1-6)]Man(b1-4)GlcNAc(b1-4)GlcNAc
# In short: as §1
# [29] = biological target: Gal(b1-4)GlcNAc(b1-2)[Gal(b1-4)GlcNAc(b1-6)]Man(a1-6)[Gal(b1-4)GlcNAc(b1-2)Man(a1-3)]Man(b1-4)GlcNAc(b1-4)GlcNAc
# In short: as §1
# [30] = biological target: Gal(b1-4)GlcNAc(b1-2)[Gal(b1-4)GlcNAc(b1-6)]Man(a1-6)[Gal(b1-4)GlcNAc(b1-2)Man(a1-3)]Man(b1-4)GlcNAc(b1-4)[Fuc(a1-6)]GlcNAc
# In short: as §1
# [31] = biological target: Gal(b1-4)GlcNAc(b1-2)[Gal(b1-4)GlcNAc(b1-6)]Man(a1-6)[GlcNAc(b1-4)][Gal(b1-4)GlcNAc(b1-2)Man(a1-3)]Man(b1-4)GlcNAc(b1-4)GlcNAc
# In short: as §1
binder,measurement,setting,value
B1,glycan array binding signal (z-score),Gal(b1-3)GlcNAc6S,-0.01
same,glycan array binding signal (z-score),[1],-0.179
same,glycan array binding signal (z-score),[2],0.403
same,glycan array binding signal (z-score),[3],0.988
same,glycan array binding signal (z-score),[4],-0.545
same,glycan array binding signal (z-score),[5],-0.36
same,glycan array binding signal (z-score),[6],0.358
same,glycan array binding signal (z-score),[7],-0.435
same,glycan array binding signal (z-score),[8],-0.195
same,glycan array binding signal (z-score),[9],-0.457
same,glycan array binding signal (z-score),[10],-0.173
same,glycan array binding signal (z-score),Gal(b1-4)Gal,-0.685
same,glycan array binding signal (z-score),[11],-0.471
same,glycan array binding signal (z-score),[12],-0.595
same,glycan array binding signal (z-score),Gal(b1-4)Glc,-0.035
same,glycan array binding signal (z-score),Gal(b1-4)Glc6S,-0.011
same,glycan array binding signal (z-score),Gal(b1-4)GlcNAc,-0.223
same,glycan array binding signal (z-score),[13],-0.009
same,glycan array binding signal (z-score),Gal(b1-4)GlcNAc(b1-2)Man,-0.376
same,glycan array binding signal (z-score),[14],0.07
same,glycan array binding signal (z-score),[15],-0.312
same,glycan array binding signal (z-score),[16],0.193
same,glycan array binding signal (z-score),[17],-0.345
same,glycan array binding signal (z-score),[18],0.287
same,glycan array binding signal (z-score),[19],-0.094
same,glycan array binding signal (z-score),[20],-0.397
same,glycan array binding signal (z-score),[21],-0.339
same,glycan array binding signal (z-score),[22],-0.378
same,glycan array binding signal (z-score),[23],-0.388
same,glycan array binding signal (z-score),[24],-0.58
same,glycan array binding signal (z-score),[25],-0.152
same,glycan array binding signal (z-score),[26],0.301
same,glycan array binding signal (z-score),[27],0.016
same,glycan array binding signal (z-score),[28],-0.318
same,glycan array binding signal (z-score),[29],-0.359
same,glycan array binding signal (z-score),[30],-0.47
same,glycan array binding signal (z-score),[31],-0.586
